# Laboratory results published in the supplement of paper PMC8728848.
# This is one part of the list.
# Tests used:
# Test in all cases: glycan array binding signal (z-score within array); higher = stronger binding
# Settings in all cases: glycan notation: IUPAC condensed, linker removed
# [1] = target: Gal(b1-3)GlcNAc(b1-3)Gal(b1-4)[Fuc(a1-3)]GlcNAc(b1-3)Gal(b1-4)Glc
# Method in brief: (§1)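 Columns mapping to the same glycan were averaged after glycan names were converted to IUPAC-condensed notation. The data come from 3228 arrays in the Consortium for Functional Glycomics database, limited to those with an available protein sequence. Binding is reported as a within-array Z-score averaged across arrays of one protein sequence and across linkers.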
# [2] = target: Gal(b1-3)GlcNAc(b1-3)Gal(b1-4)[Fuc(a1-3)]GlcNAc(b1-6)[Gal(b1-3)GlcNAc(b1-3)]Gal(b1-4)Glc
# Method in brief: as §1
# [3] = target: Gal(b1-3)GlcNAc(b1-3)[Fuc(a1-3)[Gal(b1-4)]GlcNAc(b1-6)]Gal(b1-4)Glc
# Method in brief: as §1
# [4] = target: Gal(b1-3)GlcNAc(b1-3)[Fuc(a1-3)[Gal(b1-4)]GlcNAc(b1-6)]Gal(b1-4)]GlcNAc(b1-6)[Gal(b1-4)]GlcNAc(b1-3)]Gal(b1-4)Glc
# Method in brief: as §1
# [5] = target: Gal(b1-3)GlcNAc(b1-3)[Gal(b1-4)GlcNAc(b1-6)]Gal(b1-4)Glc
# Method in brief: as §1
# [6] = target: Gal(b1-3)GlcNAc(b1-3)[Gal(b1-4)GlcNAc(b1-6)]Gal(b1-4)GlcNAc(b1-6)[Gal(b1-3)GlcNAc(b1-3)]Gal(b1-4)Glc
# Method in brief: as §1
# [7] = target: Gal(b1-3)[Fuc(a1-4)]GlcNAc
# Method in brief: as §1
# [8] = target: Gal(b1-3)[Fuc(a1-4)]GlcNAc(b1-3)Gal(b1-4)Glc
# Method in brief: as §1
# [9] = target: Gal(b1-3)[Fuc(a1-4)]GlcNAc(b1-3)Gal(b1-4)[Fuc(a1-3)]Glc
# Method in brief: as §1
# [10] = target: Gal(b1-3)[Fuc(a1-4)]GlcNAc(b1-3)Gal(b1-4)[Fuc(a1-3)]GlcNAc(b1-3)Gal(b1-4)Glc
# Method in brief: as §1
# [11] = target: Gal(b1-3)[Fuc(a1-4)]GlcNAc(b1-3)Gal(b1-4)[Fuc(a1-3)]GlcNAc(b1-6)[Gal(b1-3)[Fuc(a1-4)]GlcNAc(b1-3)]Gal(b1-4)Glc
# Method in brief: as §1
# [12] = target: Gal(b1-3)[Fuc(a1-4)]GlcNAc(b1-3)[Fuc(a1-3)[Gal(b1-4)]GlcNAc(b1-6)]Gal(b1-4)Glc
# Method in brief: as §1
# [13] = target: Gal(b1-3)[Neu5Ac(a2-6)]GalNAc(b1-4)Gal(b1-4)Glc
# Method in brief: as §1
# [14] = target: Gal(b1-3)[Neu5Ac(a2-6)]GlcNAc(b1-3)Gal(b1-4)Glc
# Method in brief: as §1
# Gal(b1-4)Glc = target: Gal(b1-4)Glc
# Method in brief: as §1
# Gal(b1-4)GlcNAc = target: Gal(b1-4)GlcNAc
# Method in brief: as §1
# [15] = target: Gal(b1-4)GlcNAc(b1-2)Man(a1-3)[Gal(b1-4)GlcNAc(b1-2)Man(a1-6)]Man(b1-4)GlcNAc(b1-4)GlcNAc
# Method in brief: as §1
# [16] = target: Gal(b1-4)GlcNAc(b1-2)Man(a1-3)[Gal(b1-4)GlcNAc(b1-2)Man(a1-6)]Man(b1-4)GlcNAc(b1-4)[Fuc(a1-6)]GlcNAc
# Method in brief: as §1
# [17] = target: Gal(b1-4)GlcNAc(b1-2)Man(a1-3)[Gal(b1-4)GlcNAc(b1-2)Man(a1-6)][GlcNAc(b1-4)]Man(b1-4)GlcNAc(b1-4)[Fuc(a1-6)]GlcNAc
# Method in brief: as §1
# [18] = target: Gal(b1-4)GlcNAc(b1-2)Man(a1-3)[Man(a1-6)]Man(b1-4)GlcNAc(b1-4)GlcNAc
# Method in brief: as §1
# [19] = target: Gal(b1-4)GlcNAc(b1-2)Man(a1-6)[GlcNAc(b1-2)Man(a1-3)]Man(b1-4)GlcNAc(b1-4)[Fuc(a1-6)]GlcNAc
# Method in brief: as §1
# [20] = target: Gal(b1-4)GlcNAc(b1-2)Man(a1-6)[Man(a1-3)]Man(b1-4)GlcNAc(b1-4)GlcNAc
# Method in brief: as §1
# [21] = target: Gal(b1-4)GlcNAc(b1-2)Man(a1-6)[Man(a1-3)]Man(b1-4)GlcNAc(b1-4)[Fuc(a1-6)]GlcNAc
# Method in brief: as §1
# [22] = target: Gal(b1-4)GlcNAc(b1-2)[Gal(b1-4)GlcNAc(b1-4)]Man(a1-3)[Fuc(a1-3)[Gal(b1-4)]GlcNAc(b1-2)Man(a1-6)]Man(b1-4)GlcNAc(b1-4)GlcNAc
# Method in brief: as §1
# [23] = target: Gal(b1-4)GlcNAc(b1-2)[Gal(b1-4)GlcNAc(b1-4)]Man(a1-3)[Gal(b1-4)GlcNAc(b1-2)Man(a1-6)]Man(b1-4)GlcNAc(b1-4)GlcNAc
# Method in brief: as §1
# [24] = target: Gal(b1-4)GlcNAc(b1-2)[Gal(b1-4)GlcNAc(b1-4)]Man(a1-3)[Gal(b1-4)GlcNAc(b1-2)[Gal(b1-4)GlcNAc(b1-6)]Man(a1-6)]Man(b1-4)GlcNAc(b1-4)GlcNAc
# Method in brief: as §1
# Gal(b1-4)GlcNAc(b1-3)Fuc = target: Gal(b1-4)GlcNAc(b1-3)Fuc
# Method in brief: as §1
# [25] = target: Gal(b1-4)GlcNAc(b1-3)Gal(b1-4)Glc
# Method in brief: as §1
# [26] = target: Gal(b1-4)GlcNAc(b1-3)Gal(b1-4)GlcNAc(b1-3)Gal(b1-4)Glc
# Method in brief: as §1
# [27] = target: Gal(b1-4)GlcNAc(b1-3)[Fuc(a1-3)[Gal(b1-4)]GlcNAc(b1-6)]Gal(b1-4)Glc
# Method in brief: as §1
# [28] = target: Gal(b1-4)GlcNAc(b1-3)[Gal(b1-4)GlcNAc(b1-6)]Gal(b1-4)Glc
# Method in brief: as §1
# [29] = target: Gal(b1-4)GlcNAc(b1-3)[Gal(b1-4)GlcNAc(b1-6)]Gal(b1-4)GlcNAc(b1-3)Gal(b1-4)Glc
# Method in brief: as §1
# [30] = target: Gal(b1-4)GlcNAc(b1-3)[Gal(b1-4)GlcNAc(b1-6)]Gal(b1-4)GlcNAc(b1-3)[Gal(b1-4)GlcNAc(b1-6)]Gal(b1-4)GlcNAc(b1-3)Gal(b1-4)Glc
# Method in brief: as §1
# [31] = target: Gal(b1-4)GlcNAc(b1-3)[Gal(b1-4)GlcNAc(b1-6)]Gal(b1-4)GlcNAc(b1-3)[Gal(b1-4)GlcNAc(b1-6)]Gal(b1-4)GlcNAc(b1-3)[Gal(b1-4)GlcNAc(b1-6)]Gal(b1-4)GlcNAc(b1-3)Gal(b1-4)Glc
# Method in brief: as §1
# [32] = target: Gal(b1-4)GlcNAc(b1-3)[Gal(b1-4)GlcNAc(b1-6)]Gal(b1-4)GlcNAc(b1-3)[Gal(b1-4)GlcNAc(b1-6)]Gal(b1-4)GlcNAc(b1-3)[Gal(b1-4)GlcNAc(b1-6)]Gal(b1-4)GlcNAc(b1-3)[Gal(b1-4)GlcNAc(b1-6)]Gal(b1-4)GlcNAc(b1-3)Gal(b1-4)Glc
# Method in brief: as §1
# Gal(b1-6)GalNAc = target: Gal(b1-6)GalNAc
# Method in brief: as §1
# [33] = target: Gal3S(b1-3)GalNAc(b1-4)Gal3S(b1-4)Glc
# Method in brief: as §1
# [34] = target: Gal3S(b1-3)[Fuc(a1-4)]GlcNAc
# Method in brief: as §1
# [35] = target: Gal3S(b1-3)[Fuc(a1-4)]GlcNAc(b1-3)Gal(b1-4)Glc
# Method in brief: as §1
# Gal3S(b1-4)Glc = target: Gal3S(b1-4)Glc
# Method in brief: as §1
# Gal3S(b1-4)GlcNAc = target: Gal3S(b1-4)GlcNAc
# Method in brief: as §1
# [36] = target: Gal3S(b1-4)GlcNAc(b1-3)Gal
# Method in brief: as §1
# [37] = target: Gal6S(b1-3)[Fuc(a1-4)]GlcNAc(b1-3)Gal(b1-4)Glc
# Method in brief: as §1
# GalNAc(a1-3)Gal(b1-4)Glc = target: GalNAc(a1-3)Gal(b1-4)Glc
# Method in brief: as §1
# GalNAc(a1-3)GalNAc = target: GalNAc(a1-3)GalNAc
# Method in brief: as §1
binder,measurement,setting,value
"MIC4-A5 (Toxoplasma gondii), Q9XZH7 (protein) SPDFHDEVECVHTGNIGSKAQTIGEVKRASSLSECRARCQAEKECSHYTYNVKSGLCYPKRGKPQFYKYLGDMTGSRTCDTS",glycan array binding signal (z-score),[1],0.553
same,glycan array binding signal (z-score),[2],1.67
same,glycan array binding signal (z-score),[3],0.767
same,glycan array binding signal (z-score),[4],0.557
same,glycan array binding signal (z-score),[5],1.51
same,glycan array binding signal (z-score),[6],0.677
same,glycan array binding signal (z-score),[7],1.21
same,glycan array binding signal (z-score),[8],-0.323
same,glycan array binding signal (z-score),[9],-0.322
same,glycan array binding signal (z-score),[10],-0.323
same,glycan array binding signal (z-score),[11],-0.32
same,glycan array binding signal (z-score),[12],-0.318
same,glycan array binding signal (z-score),[13],6.12
same,glycan array binding signal (z-score),[14],3.02
same,glycan array binding signal (z-score),Gal(b1-4)Glc,0.652
same,glycan array binding signal (z-score),Gal(b1-4)GlcNAc,2.85
same,glycan array binding signal (z-score),[15],1.17
same,glycan array binding signal (z-score),[16],1.44
same,glycan array binding signal (z-score),[17],1.3
same,glycan array binding signal (z-score),[18],0.343
same,glycan array binding signal (z-score),[19],0.166
same,glycan array binding signal (z-score),[20],1.67
same,glycan array binding signal (z-score),[21],0.269
same,glycan array binding signal (z-score),[22],0.498
same,glycan array binding signal (z-score),[23],3.22
same,glycan array binding signal (z-score),[24],2.28
same,glycan array binding signal (z-score),Gal(b1-4)GlcNAc(b1-3)Fuc,-0.248
same,glycan array binding signal (z-score),[25],0.717
same,glycan array binding signal (z-score),[26],0.444
same,glycan array binding signal (z-score),[27],1.54
same,glycan array binding signal (z-score),[28],1.51
same,glycan array binding signal (z-score),[29],0.578
same,glycan array binding signal (z-score),[30],0.447
same,glycan array binding signal (z-score),[31],0.059
same,glycan array binding signal (z-score),[32],0.203
same,glycan array binding signal (z-score),Gal(b1-6)GalNAc,1.93
same,glycan array binding signal (z-score),[33],-0.323
same,glycan array binding signal (z-score),[34],-0.322
same,glycan array binding signal (z-score),[35],-0.323
same,glycan array binding signal (z-score),Gal3S(b1-4)Glc,-0.323
same,glycan array binding signal (z-score),Gal3S(b1-4)GlcNAc,-0.321
same,glycan array binding signal (z-score),[36],-0.323
same,glycan array binding signal (z-score),[37],-0.323
same,glycan array binding signal (z-score),GalNAc(a1-3)Gal(b1-4)Glc,-0.323
same,glycan array binding signal (z-score),GalNAc(a1-3)GalNAc,-0.319
